Results reported in a collection of fitness landscapes (doi:10.1016/j.celrep.2020.107928).
Over roughly 81,000 sequences, “one-hybrid fitness for binding parS DNA” has its median near -0.17; the highest 2% begin near 0.51. Some of the results follow.

B1: Caulobacter ParB omega fusion; a variant is named by its letters at X, in order, B8GW30 (parent)
chain: MESVVVGEPGMSEGRRGLGRGLSALLGEVDAAPAQAPGEQLGGSREAPIEILQRNPDQPRRTFREEDLEDLSNSIREKGVLQPILVRPSPDTAGEYQIVAGERAWRAAQRAGLKTVPIMVRELDDLAVLEIGIIENVQRADLNVLEEALSYKVLMEKFERTQENIAQTIGKSXSHVANXMRLLXLPDEVQSYLVSGELTAXHARAIAAAADPVALAKQIIEGGLSVRETEALARKAPNLSAGKSKGGRPPRVKDTDTQALESDLSSVLGLDVSIDHRGSTGTLTITYATLEQLDDLCNRLTRGI

Variants of: B1
Assay: one-hybrid fitness for binding parS DNA (scaled: cognate 1, non-cognate 0); higher = stronger binding
Details: with parS DNA site
How it was run: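 In E. coli USO, a HIS3 reporter with its site placed 19 bp from the promoter was used to select Caulobacter ParB variants randomised at four specificity codons. Growth lasted 48 hours at 37°C on histidine-free M9 containing 0.1 mM IPTG and 5 mM 3-AT. Fitness was taken as the log change in variant-to-wild-type read ratio from Illumina sequencing of pre- and post-selection plasmids, rescaled between the non-cognate and cognate sites.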

Variant | one-hybrid fitness for binding parS DNA
ALDS | ≤ 0.2
QQMY | ≤ 0.2
IERR | ≤ 0.2
HWTR | ≤ 0.2
SRVE | ≤ 0.2
TEPT | ≤ 0.2
TFYG | ≤ 0.2
SSHH | ≤ 0.2
REHN | ≤ 0.2
RSCW | ≤ 0.2
VVSR | ≤ 0.2
VRRV | ≤ 0.2
LKIS | ≤ 0.2
GMIR | ≤ 0.2
MQTT | ≤ 0.2
DGTS | ≤ 0.2
QCTW | ≤ 0.2
RYYH | ≤ 0.2
PFDS | ≤ 0.2
CRIG | ≤ 0.2
WLTV | ≤ 0.2
AQFC | ≤ 0.2
TSTY | ≤ 0.2
GMAT | 0.266
YAWW | ≤ 0.2

Variant | one-hybrid fitness for binding parS DNA
TDRY | ≤ 0.2
PNIE | ≤ 0.2
HAHC | ≤ 0.2
CLSF | ≤ 0.2
ADMI | ≤ 0.2
PKIW | ≤ 0.2
QSVC | ≤ 0.2
HINM | ≤ 0.2
HPRK | ≤ 0.2
RMWV | ≤ 0.2
CGNC | ≤ 0.2
SAGW | ≤ 0.2
MPKG | ≤ 0.2
SARC | ≤ 0.2
YVGI | ≤ 0.2
RKDK | ≤ 0.2
PLRP | ≤ 0.2
EAGH | ≤ 0.2
LCKH | ≤ 0.2
RKCL | ≤ 0.2
SRCD | ≤ 0.2
KRIC | ≤ 0.2
TRTV | ≤ 0.2
WEPL | ≤ 0.2
ATHN | ≤ 0.2

Variant | one-hybrid fitness for binding parS DNA
EKHF | ≤ 0.2
QQEV | ≤ 0.2
HSEP | ≤ 0.2
IVIC | ≤ 0.2
PNCR | ≤ 0.2
KNDK | ≤ 0.2
EPLC | ≤ 0.2
SKVI | ≤ 0.2
HKSS | ≤ 0.2
MRLM | ≤ 0.2
PFHV | ≤ 0.2
QYSH | ≤ 0.2
THGT | ≤ 0.2
WYES | ≤ 0.2
YKAT | ≤ 0.2
VQCS | ≤ 0.2
QQLY | ≤ 0.2
CRRL | ≤ 0.2
ALLR | ≤ 0.2
NEQM | ≤ 0.2
RKIH | ≤ 0.2
ERPY | ≤ 0.2
STKG | ≤ 0.2
QLIV | ≤ 0.2
ASGP | ≤ 0.2

Variant | one-hybrid fitness for binding parS DNA
TRLK | ≤ 0.2
QYSE | ≤ 0.2
IRRE | ≤ 0.2
QASA | ≤ 0.2
LSMR | ≤ 0.2
NLVR | ≤ 0.2
VRHY | ≤ 0.2
SSHL | ≤ 0.2
QVDV | ≤ 0.2
ISSV | ≤ 0.2
RCKN | 0.463
AWDC | ≤ 0.2
AIAF | ≤ 0.2
QEIV | ≤ 0.2
RKEY | 0.401
SSWI | ≤ 0.2
AIRV | ≤ 0.2
YISF | ≤ 0.2
ARWV | ≤ 0.2
DSVR | ≤ 0.2
HSAQ | ≤ 0.2
NYSA | ≤ 0.2
DYGV | ≤ 0.2
KSMD | ≤ 0.2
RCES | 1.02

Variant | one-hybrid fitness for binding parS DNA
YEKM | ≤ 0.2
FSPR | ≤ 0.2
TMPI | ≤ 0.2
MKTL | ≤ 0.2
ASHV | ≤ 0.2
LMYF | ≤ 0.2
QVQF | ≤ 0.2
RVGQ | ≤ 0.2
RDFC | ≤ 0.2
LRSP | ≤ 0.2
WTMS | ≤ 0.2
SPCT | ≤ 0.2
YVGC | ≤ 0.2
MIPM | ≤ 0.2
TRPP | ≤ 0.2
LAWS | ≤ 0.2
PMRR | ≤ 0.2
QRPS | ≤ 0.2
CYLF | ≤ 0.2
LKLL | ≤ 0.2
LSQD | ≤ 0.2
PILT | ≤ 0.2
LDVS | ≤ 0.2
CLRK | ≤ 0.2
QQMW | ≤ 0.2

Variant | one-hybrid fitness for binding parS DNA
ASPN | ≤ 0.2
DQAR | ≤ 0.2
NLRH | ≤ 0.2
CLNC | ≤ 0.2
VANG | ≤ 0.2
QFKA | ≤ 0.2
KLKM | ≤ 0.2
VMRP | ≤ 0.2
FINT | ≤ 0.2
TGRM | ≤ 0.2
QVEC | ≤ 0.2
AHQI | ≤ 0.2
YLWT | ≤ 0.2
DNVR | ≤ 0.2
TWYC | ≤ 0.2
TITL | ≤ 0.2
RGMP | ≤ 0.2
IKLV | ≤ 0.2
HPHP | ≤ 0.2
GQNR | ≤ 0.2
QIPV | ≤ 0.2
QLII | ≤ 0.2
WPTL | ≤ 0.2
FRNC | ≤ 0.2
FTPS | ≤ 0.2

Variant | one-hybrid fitness for binding parS DNA
EHNC | ≤ 0.2
QKSF | ≤ 0.2
DPNC | ≤ 0.2
SKVC | ≤ 0.2
YLSS | ≤ 0.2
WWLS | ≤ 0.2
TWLP | ≤ 0.2
CAEG | ≤ 0.2
LYVL | ≤ 0.2
QMGW | ≤ 0.2
FGSI | ≤ 0.2
DSMV | ≤ 0.2
PHNY | ≤ 0.2
VSVY | ≤ 0.2
ASGW | ≤ 0.2
ASHN | ≤ 0.2
RLST | 0.939
ETHY | ≤ 0.2
KMVA | ≤ 0.2
LIAC | ≤ 0.2
ALVD | ≤ 0.2
CPMR | ≤ 0.2
GDTG | ≤ 0.2
KRTR | ≤ 0.2
MVGD | ≤ 0.2

Variant | one-hybrid fitness for binding parS DNA
TSSV | ≤ 0.2
TKQP | ≤ 0.2
SNWR | ≤ 0.2
PKCF | ≤ 0.2
TMQC | ≤ 0.2
MKYR | ≤ 0.2
QANG | ≤ 0.2
RLQE | ≤ 0.2
VRTF | ≤ 0.2
QHSL | ≤ 0.2
GGST | ≤ 0.2
QSEN | ≤ 0.2
MEMV | ≤ 0.2
HGVS | ≤ 0.2
QCTI | ≤ 0.2
RKVN | 0.36
SNLY | ≤ 0.2
LENC | ≤ 0.2
VEAG | ≤ 0.2
GMMM | ≤ 0.2
